Assay results: article PMC9574860, “Chemical Toolkit for PARK7: Potent, Selective, and High-Throughput” (Journal of Medicinal Chemistry, 2022)
The campaign covered roughly 7,900 compounds. About 400 (5.1%) showed an effect of 50% or more. Some of the results follow.

target: Parkinson's disease protein 7 (PARK7/DJ1) (human, UniProt Q99497); test: primary screen, percent inhibition; read as competition with a fluorescent probe by fluorescence polarization; higher = more effect of the substance; conditions: 100 µM
Description: The screen was conducted using the conditions as described above in 1536-well plates (Corning 3724) with a reaction volume of 8 μL per well. The compound library containing 7887 covalent fragments was purchased at Enamine Ltd. and received as 100 mM DMSO stocks in 384 well LDV Echo plates (Labcyte LP-0200). Stock solutions of 0.26 μM PARK7 and 80 nM JYQ-107 were prepared. Using a Labcyte Echo550 acoustic dispenser, 8 nL of the DMSO stock solution of the library compounds was transferred from the source plates into the empty 1536-well screening plates to obtain a 100 μM final compound concentration. Next, PARK7 (6 μL, final concentration 0.2 μM) was dispensed using a Biotek MultiflowFX liquid dispenser and incubated for 2 h, followed by dispensing the probe JYQ-107 (2 μL, final concentration 20 nM). After 2 h incubation, the FP signal was recorded on a BMG Labtech PHERAstar plate reader (λex/em 480/520 nm). The relative loss of FP signal compared with reference controls was used to calculate the remaining enzyme activity.

Sequence of Parkinson's disease protein 7 (PARK7/DJ1) (Q99497 whole entry, looked up, the tested form may be a part): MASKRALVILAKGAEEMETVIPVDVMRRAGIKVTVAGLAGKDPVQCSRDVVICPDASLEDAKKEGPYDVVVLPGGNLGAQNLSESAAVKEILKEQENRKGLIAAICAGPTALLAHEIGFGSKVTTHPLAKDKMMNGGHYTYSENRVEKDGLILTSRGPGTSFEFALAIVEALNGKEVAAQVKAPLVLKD

In order of falling Inhibition %:
1. Cc1ccccc1CCNC(=O)n1ccnc1  101%
2. COCC1(C(=O)Nc2cccc(S(=O)(=O)F)c2)CCCC1  94.3%
3. COc1ccc(CS(=O)(=O)F)cc1  88.4%
4. C=CC(=O)Nc1c(C)nn(C)c1N1CCC1  87.1%
5. CCOC(=O)C1CCCN(C(=O)CCl)C1 (stereo not shown)  74.4%
6. O=S(=O)(F)c1ccc2cn[nH]c2c1  72.5%
7. O=C1OCCC1Sc1nnc(C2CCCCC2)o1 (stereo not shown)  66.7%
8. O=C(O)c1csc(NS(=O)(=O)C=Cc2ccccc2)c1  62.5%
9. CS(=O)(=O)OCCC1CCCO1 (stereo not shown)  29.3%
10. Cc1nc(C)c(Cn2c(-c3cccnc3)noc2=O)s1  27.6%
11. N#Cc1nncn1CC(=O)Nc1ccc(C(F)(F)F)cc1  26.2%
12. C=CC(=O)N(Cc1nc(-c2cccnc2)no1)C(C)C  22.6%
13. Cl.O=C(Oc1ccccc1)N1CCCNCC1  22.2%
14. CC1c2cccn2CCN1C(=O)n1ccnc1 (stereo not shown)  22%
15. Cc1nc(C=CC(=O)N2CCNC(C)C2)cs1.Cl.Cl (stereo not shown)  17.5%
16. C=CC(=O)NC1CCN(c2cccnn2)CC1  14.8%
17. O=C(CCl)N1CCN(S(=O)(=O)c2ccc(F)cc2)CC1  14.2%
18. C=CC(=O)N1CCN(Cc2nccn2C(F)F)CC1  13.9%
19. CNCc1cccc(B2OC(C)(C)C(C)(C)O2)c1.Cl  13.9%
20. CC1c2ccsc2CCN1C(=O)C=Cc1cnn(C)c1 (stereo not shown)  13.8%
21. Cc1ncc(C=CC(=O)N2CCNCC2C)s1.Cl.Cl (stereo not shown)  13.7%
22. C=CC(=O)N1C[C@H]2CCCC[C@H]2C1  13.7%
23. CC1(C)OC1c1ccccc1 (stereo not shown)  13.4%
24. C=CC(=O)N1CCCCC1c1nccs1 (stereo not shown)  13.3%
25. COC(=O)c1cc(O)cc(B2OC(C)(C)C(C)(C)O2)c1  13.2%
26. C=CC(=O)NCc1nnc2ccccn12  13%
27. Cc1ccc(F)cc1NC(=O)CCl  12.6%
28. Cl.Cl.NC1CCCN(C(=O)C=Cc2ccccn2)C1 (stereo not shown)  12.6%
29. C=CC(=O)N1CCN(S(=O)(=O)CC)C[C@H]1C  12.6%
30. COc1cccc2c1CCC2Nc1ccc(C#N)nc1 (stereo not shown)  12.3%
31. N#Cc1nccn1CC=Cc1ccccc1  12.2%
32. CN(Cc1nccn1CC(F)(F)F)c1ccc(C#N)nc1  12.1%
33. CC=C(C#N)c1ccc2c(c1)OCO2  12.1%
34. Cn1c(SC2CCOC2=O)nc2ccccc21 (stereo not shown)  12%
35. N#CC(=Cc1cccc(-c2ccncc2)c1)C(N)=O  11.9%
36. CC(C)Oc1cc(CNC(=O)c2cccnc2S)ccn1  11.9%
37. C=CC(=O)N[C@H]1COC[C@H]1n1ccnn1  11.8%
38. Cc1cc(C=C(C#N)C(=O)O)c(C)n1CC1CCCO1 (stereo not shown)  11.7%
39. O=C1SCCN1CN1CCC(c2ccccc2)CC1  11.7%
40. OB(O)c1cccc(OC2CCCC2)c1  11.7%
41. COc1cccc(NC(=O)CCCl)c1  11.2%
42. CN(C)c1ccc(C=CC#N)cc1  10.9%
43. C=CC(=O)N1CCC[C@H](CN2CCOCC2)C1  10.5%
44. Cl.O=C(CCl)NCc1ccc(CN2CCCC2)cc1  10.4%
45. O=C(CCl)N1CCC2(CC1)OCCO2  10.3%
46. COC(OC)c1ccnc(SC)n1  10.2%
47. N#Cc1ccccc1NC(=O)CCl  10%
48. CC1(C)CN(c2ccc(C#N)nc2)CCS1  9.73%
49. N#CC(=Cc1ccccc1)C(=O)N1CCC(C(N)=O)CC1  9.67%
50. C=CC(=O)NCc1cccnc1N1CCCC1  9.31%
51. CC(CC(O)c1ccco1)Nc1ccc(C#N)nc1 (stereo not shown)  9.23%
52. O=C(CCl)NC(=O)NCc1cccs1  9.23%
53. O=C(CCl)Nc1nc(-c2cc(F)ccc2F)cs1  9.23%
54. C=CC(=O)Nc1cnc(C(C)(C)C)nc1  9.19%
55. O=C(NC1CCN(C2CCOC2=O)CC1)c1ccccc1 (stereo not shown)  9.18%
56. C=CC(=O)NCc1ccnn1C  8.81%
57. C=CC(=O)N1CCCN(CCOC)C(=O)C1  8.67%
58. CC1(C)OB(c2ccc([N+](=O)[O-])cc2F)OC1(C)C  8.59%
59. C=CC(=O)NC1CCCC2OCCC12 (stereo not shown)  8.57%
60. CC(C)(C)c1ccc(S(=O)(=O)N[C@H]2CCOC2=O)cc1  8.44%
61. C=CC(=O)N1CCCCC1c1ccco1 (stereo not shown)  8.17%
62. N#Cc1ccc(Cl)nn1  8.15%
63. CCc1nccn1S(=O)(=O)c1ccc(Cl)c(OC)c1  8.11%
64. C=CC(=O)N1CCOCC1c1nc(C)cs1 (stereo not shown)  8.04%
65. C=CC(=O)Nc1cnn(CC2CC2)c1  7.8%
66. CN1CCC(CCl)CC1.Cl  7.56%
67. CC(O)c1cnc(C2OCCO2)s1 (stereo not shown)  7.39%
68. N#Cc1ncn(Cc2ccc(Cl)cc2)n1  7.37%
69. CS(=O)(=O)n1ccc(N)n1  7.32%
70. C=CC(=O)NC[C@@H]1C=C[C@H]2C[C@@H]1CO2 (racemic)  7.23%
71. CC1(C)CCCCN(c2cnc(C#N)cn2)C1  7.16%
72. CCOc1cc(S(=O)(=O)n2ccnc2CC)ccc1Cl  6.87%
73. O=C1CC(c2cccnc2)=NO1  6.84%
74. c1ccc(CN2CCC3(CO3)C2)cc1 (stereo not shown)  6.12%
75. CC1CCN(C(=O)CCl)c2ccccc2S1 (stereo not shown)  6.09%
76. O=S(=O)(C=Cc1ccc(Cl)cc1)N1CCCCC1  5.97%
77. N#Cc1ccc(N2CCCC2)cn1  5.57%
78. CCOc1cc(C)c(Cl)cc1S(=O)(=O)n1ccnc1C  5.5%
79. C=CC(=O)Nc1c(C)n(C)n(-c2ccccc2)c1=O  5.49%
80. C=CC(=O)N1C2CCC1CC(CCF)C2 (stereo not shown)  5.32%
81. CC(C)Oc1ccc(O)cc1B1OC(C)(C)C(C)(C)O1  5.32%
82. C=CC(=O)N1CCC(OCc2ccccc2C)CC1  5.28%
83. N#Cc1ncn(CC(=O)N2CCCC2c2cccs2)n1 (stereo not shown)  5.17%
84. CC1CC(Sc2nnnn2C2CCCC2)C(=O)O1 (stereo not shown)  5.08%
85. COCc1ccc(B2OC(C)(C)C(C)(C)O2)cc1F  4.89%
86. N#Cc1ccc(NC2CC(=O)N(C3CC3)C2)cn1 (stereo not shown)  4.8%
87. C=CC(=O)NCC1CC(C)(C)OC1(C)C (stereo not shown)  4.78%
88. C=CC(=O)N1CCN(C(=O)C=C)CC1  4.56%
89. CCOc1ccc(Cl)cc1S(=O)(=O)n1ccnc1CC  4.44%
90. O=C1CC(c2ccc(Cl)cc2)N1 (stereo not shown)  4.44%
91. Cc1cccc(NC2CCN(C3CC(C)OC3=O)CC2)c1 (stereo not shown)  4.3%
92. C=CC(=O)NCC(C)(C)CC1CCOCC1  3.79%
93. C=CC(=O)NC1CC2C=CC1CC2 (stereo not shown)  3.57%
94. CCOc1cc(C)c(C)cc1S(=O)(=O)n1nc(C)cc1C  3.57%
95. CCC(=O)N1CCC(Nc2ccc(C#N)nc2)C1 (stereo not shown)  3.54%
96. COCCNc1oc(-c2ccccc2)nc1C#N  3.4%
97. Cl.ClCCCN1CCOCC1  3.24%
98. C=CC(=O)NC1COc2cc(F)cc(F)c21 (stereo not shown)  3.21%
99. CC(C)(C)Sc1ccc(C#N)nc1  2.96%
100. Cn1cc(C=C(C#N)c2nc3ccccc3n2C)cn1  2.9%
101. Cl.ClCCn1ccnc1  2.86%
102. Cc1ccc(C=C(C#N)C(=O)NCc2ccco2)o1  2.77%
103. O=C(CCl)NCc1ccc(Cl)cc1  2.75%
104. C=CC(=O)NC[C@H]1CC[C@H](c2ccccc2)O1  2.73%
105. Cc1nc(S)c2cccnc2n1  2.7%
106. CN(Cc1ccccc1Cl)C(=O)n1ccnc1  2.68%
107. Cc1ccc(OCCn2cnc(C#N)n2)cc1  2.66%
108. N#Cc1nc(-c2ccccc2)oc1N1CCOCC1  2.55%
109. CC1(C)OB(c2ccc(OC(F)(F)C(F)(F)F)cc2)OC1(C)C  2.49%
110. C=CC(=O)N1CCCN(C(=O)c2cccc(F)c2)CC1  2.43%
111. CCCOc1cc(C)c(C)cc1S(=O)(=O)n1cccn1  2.32%
112. Cc1nn(C)c(C)c1B1OC(C)(C)C(C)(C)O1  2.29%
113. O=C(CCl)Nc1ccc2c(c1)C(=O)c1ccccc1C2=O  2.08%
114. O=C1CCc2cc(OS(=O)(=O)c3ccccc3)ccc2N1  1.67%
115. C=CC(=O)N1CCN(C)C(=O)C1CC (stereo not shown)  1.56%
116. O=c1ccn(C2CC2)c(S)n1  1.51%
117. CCOC(=O)c1cncc(B2OC(C)(C)C(C)(C)O2)c1  1.29%
118. Cc1nccn1CC1CCCN1c1ccc(C#N)nc1 (stereo not shown)  0.293%
119. C=CC(=O)NCc1cccc(N2CCCC2=O)c1  0.0231%
120. CC1(C)OB(c2ccc(OCCc3ccccn3)cc2)OC1(C)C  -0.0918%
121. OB(O)c1ccc(OCc2ccc(Cl)cc2)cc1  -0.814%
122. CC1(C)OB(c2ccc(C(F)F)nc2)OC1(C)C  -1.1%
123. O=C1CN=C(S)N1C1CCCCC1  -1.4%
124. CC(C)(C)OC(=O)N1C2CCC1CC(=CB1OC(C)(C)C(C)(C)O1)C2  -1.71%
